Read counts are not given, so values of variants with three or more changes are uncertain.
B1: CPEB3 Ribozyme (parent)
chain: UAACAGGGGGCCACAGCAGAAGCGUUCACGUCGCAGCCCCUGUCAGAUUCUGGUGAAUCUGCGAAUUCUGCUGUAUAUCUC

Variants of: B1
Experiment: self-cleavage, relative activity (ratio to wild type); higher = more cleavage; in vitro, sequencing
Method in brief: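 CPEB3 self-cleaving ribozyme mutant libraries were made by rounds of error-prone PCR, barcoded, and transcribed in vitro with T7 RNA polymerase for 5 hours at 37°C. Cleavage occurred during transcription and a 15 min DNase I step before EDTA stop. RNAs were reverse transcribed with template switching and Illumina-sequenced, with DNA sequencing mapping barcodes to variants. Relative activity is the variant's cleaved/total read fraction divided by wild type's (minimum 5 reads), averaged across three batches.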

| Variant | self-cleavage |
| --- | --- |
| A18U U25C U76A | 0.33 |
| A18U G30A C34U A64U | 0.08 |
| A18U A45G A64U U74C | 0.1 |
| A18U G33U U43C U60A C68U | 0.13 |
| A18U A35U A64G A65G | 0.19 |
| A18U A64U A75G | 0.2 |
| A18G U67G U80C | 0.22 |
| A18U U26A U58A U66C U72C | 0.13 |
| A18U U25C U26C A45G U69C | 0.14 |
| A18U U41C U72C | 0.26 |
| A18U U43A U54C U78C | 0.28 |
| A18U A56G A57G A65G U78C C81A | 0.09 |
| A18U U31C U66C | 0.35 |
| A18U A20G U25C A64G C81U | 0.07 |
| A18U U43A U69C A75G | 0.37 |
| A18U G24U U72A | 0.13 |
| A18U A45G A56U | 0.3 |
| A18U U26G A35G A56G U60A C68U | 0.09 |
| A18U C44G U67C | 0.13 |
| A18U U26C G33A | 0.24 |
| A18U U31A A56U U67C | 0.11 |

| Variant | self-cleavage |
| --- | --- |
| A18U A28G A65G C71U | 0.12 |
| A18U A20G U51C A77G | 0.19 |
| A18U U31C A35G A47G U74C | 0.47 |
| A18U U43C A56G U58C A65G U67C | 0.33 |
| A18U U41C A45U U48C A75U U78A | 0.25 |
| A18U A20G C34U | 0.28 |
| A18U U31C U58C U60C | 0.16 |
| A18U A45U U49C U58A U67C | 0.06 |
| A18U A35G C39U U51A C59A | 0.22 |
| A18U U31C U41C G46A U72C | 0.22 |
| A18U A28G U76A | 0.16 |
| A18U A21G U41C G61A | 0.14 |
| A18U A21U U31C | 0.17 |
| A18U A35G C37A G61A A77U | 0.1 |
| A18U C40U U43C A45C U80C | 0.07 |
| A18U G19U A35G A45G U54A U66C U72C | 0.07 |
| A18U A35G U43A G46C U54G A64U U72C | 0.19 |
| A18U A45G U49C | 0.12 |
| A18U A47G A57G C71U | 0.24 |
| A18U A56G A64G | 0.21 |
| A18U U51C G70A | 0.36 |

| Variant | self-cleavage |
| --- | --- |
| A18U U48C U60C | 0.08 |
| A18U C32A U54A U69C | 0.06 |
| A18U A28G U69C | 0.16 |
| A18U G36A A45U A64G | 0.12 |
| A18U A21G A28U A65G U80C | 0.07 |
| A18U U51A C59G U72C U80C | 0.19 |
| A18U A21G C38U U58C | 0.24 |
| A18U A47G A77G | 0.45 |
| A18U A47G U49A A57G | 0.2 |
| A18U A20G A45G A65G U72A | 0.12 |
| A18U A35G A45U | 0.11 |
| A18U A35G A45G | 0.67 |
| A18U U26C U76C | 0.42 |
| A18U A20C A35G U43C | 0.24 |
| A18U C29A U41A A47G U49A A65U U67C | 0.06 |
| A18U A28U U80C | 0.5 |
| A18G U67G U72A | 0.1 |
| A18U G30A G33A U78C | 0.06 |
| A18U G19A A28G U67A U76A | 0.1 |
| A18U U41A A47U | 0.21 |
| A18U U49C U66C | 0.16 |

| Variant | self-cleavage |
| --- | --- |
| A18U A20G A35U U60A U66C | 0.22 |
| A18U A45U U51A G53A A77G | 0.05 |
| A18U U31A U41C A64U | 0.14 |
| A18U G19A U41C | 0.39 |
| A18U U51G A56U U76C U80C | 0.18 |
| A18U U25A U26C U72A | 0.05 |
| A18U A56C U60A | 0.14 |
| A18U A21G U25A | 0.38 |
| A18U U31C A35U A65G | 0.12 |
| A18U A56G U66C | 0.16 |
| A18U A64G C81U | 0.26 |
| A18U A20U G46A A47G A75G | 0.1 |
| A18U G33A U48C A56G U72A | 0.07 |
| A18G U72C A77G | 0.73 |
| A18U C68A U69C | 0.26 |
| A18U G53U U69C U72C | 0.25 |
| A18U A20U A47G C68A A75G | 0.11 |
| A18U A47G G52C C62U A75U | 0.25 |
| A18U U31A U41A C44A A56U | 0.08 |
| A18G U72A U78C | 0.17 |

Source: the RNAGym collection of RNA variant scans (doi:10.1093/nar/gkz1192)
